Assays:
[1] = biological target: T1, His-FLAG-NEPHRIN-extracellular domain (ECD) (Mus musculus, UniProt Q9QZS7 37-1078); test: SPR; Biacore T200; HGF immobilised on CM5 chip (10 mM acetate pH 5.0, ~2000 RU); increasing concentrations of FLAG-NEPH1-FL and FLAG-NEPHRIN-ECD flowed at 50 μl/min; HBS-P; regeneration 2 M NaCl; steady-state analysis; conditions: both partners purified
T1 sequence (looked up): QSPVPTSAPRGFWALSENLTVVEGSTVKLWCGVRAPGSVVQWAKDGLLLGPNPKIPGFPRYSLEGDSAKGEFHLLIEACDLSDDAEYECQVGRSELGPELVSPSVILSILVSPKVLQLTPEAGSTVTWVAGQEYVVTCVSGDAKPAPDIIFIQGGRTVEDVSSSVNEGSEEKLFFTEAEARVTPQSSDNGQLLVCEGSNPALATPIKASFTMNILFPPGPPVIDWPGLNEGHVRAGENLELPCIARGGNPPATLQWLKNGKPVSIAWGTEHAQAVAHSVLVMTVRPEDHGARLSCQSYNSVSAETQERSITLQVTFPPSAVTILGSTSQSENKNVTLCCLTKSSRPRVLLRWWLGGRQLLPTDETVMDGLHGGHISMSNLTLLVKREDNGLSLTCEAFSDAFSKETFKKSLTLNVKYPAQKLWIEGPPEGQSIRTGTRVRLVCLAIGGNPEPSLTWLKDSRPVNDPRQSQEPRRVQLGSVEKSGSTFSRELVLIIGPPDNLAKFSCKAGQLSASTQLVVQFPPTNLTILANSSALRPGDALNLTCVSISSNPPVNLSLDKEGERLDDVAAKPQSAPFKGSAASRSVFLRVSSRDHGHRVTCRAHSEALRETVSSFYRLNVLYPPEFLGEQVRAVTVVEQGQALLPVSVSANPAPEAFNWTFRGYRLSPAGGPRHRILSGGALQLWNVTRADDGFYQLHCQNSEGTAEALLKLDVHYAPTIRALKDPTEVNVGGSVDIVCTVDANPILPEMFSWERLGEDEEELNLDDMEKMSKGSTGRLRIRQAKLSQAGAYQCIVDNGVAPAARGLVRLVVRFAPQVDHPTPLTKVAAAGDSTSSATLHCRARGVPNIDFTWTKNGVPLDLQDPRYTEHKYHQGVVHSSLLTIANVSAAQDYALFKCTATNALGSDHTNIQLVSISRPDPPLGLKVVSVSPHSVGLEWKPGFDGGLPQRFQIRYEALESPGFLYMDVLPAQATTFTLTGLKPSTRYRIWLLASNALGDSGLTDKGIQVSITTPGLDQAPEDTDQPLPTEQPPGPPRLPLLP

[2] = biological target: T2, His-FLAG-NEPH1-full length (FL) (Mus musculus, UniProt Q80W68 48-789); test: as above; conditions: both partners purified
T2 sequence (looked up): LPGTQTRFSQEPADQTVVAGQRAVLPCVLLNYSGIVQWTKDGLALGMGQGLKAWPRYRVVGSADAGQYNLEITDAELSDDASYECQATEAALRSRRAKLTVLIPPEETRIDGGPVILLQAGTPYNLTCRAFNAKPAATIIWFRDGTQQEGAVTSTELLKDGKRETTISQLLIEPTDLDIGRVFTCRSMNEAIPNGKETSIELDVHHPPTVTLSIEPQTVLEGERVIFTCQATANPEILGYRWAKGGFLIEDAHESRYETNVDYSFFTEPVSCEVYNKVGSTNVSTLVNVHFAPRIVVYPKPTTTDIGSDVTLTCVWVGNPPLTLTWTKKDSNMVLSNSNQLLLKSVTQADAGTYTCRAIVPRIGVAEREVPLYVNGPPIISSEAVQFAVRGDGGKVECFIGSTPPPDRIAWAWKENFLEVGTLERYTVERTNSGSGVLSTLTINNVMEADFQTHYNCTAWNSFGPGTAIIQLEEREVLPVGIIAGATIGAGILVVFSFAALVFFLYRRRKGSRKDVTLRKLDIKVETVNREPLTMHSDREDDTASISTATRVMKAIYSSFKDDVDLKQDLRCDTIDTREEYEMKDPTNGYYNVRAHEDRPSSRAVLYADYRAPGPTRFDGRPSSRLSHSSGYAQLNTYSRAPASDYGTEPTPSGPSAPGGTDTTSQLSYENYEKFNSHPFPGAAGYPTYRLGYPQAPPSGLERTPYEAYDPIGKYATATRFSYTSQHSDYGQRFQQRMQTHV

B1: purified human recombinant HGF (ligand)
chain: not shown
notes: hepatocyte growth factor, human, recombinant, purified; also called hepatocyte growth factor; recombinant human active HGF; source: bought: Sigma
Binder B1 has a Kd [1] of 2.4 nM and a Kd [2] of 278 nM.

Reference: publication PMC8429977, “Phosphorylation of slit diaphragm proteins NEPHRIN and NEPH1 upon binding of HGF promotes podocyte repair” (The Journal of Biological Chemistry, 2021)
